{"source": "the supplement of paper PMC8728848", "experiment_in_all_cases": "glycan array binding signal (z-score within array); higher = stronger binding", "conditions_in_all_cases": "glycan notation: IUPAC condensed, linker removed", "key": {"Gal3S(b1-4)Glc": {"molecular_target": "Gal3S(b1-4)Glc", "summary_of_the_method": "(§1)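 The Consortium for Functional Glycomics database supplied 3228 glycan arrays, of which those lacking an available protein sequence were dropped. The binding signal, a within-array Z-score, was averaged across arrays of the same protein sequence and across linkers. Negative scores can be read as non-binding.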"}, "Gal3S(b1-4)Glc6S": {"molecular_target": "Gal3S(b1-4)Glc6S", "summary_of_the_method": "as §1"}, "Gal3S(b1-4)GlcNAc": {"molecular_target": "Gal3S(b1-4)GlcNAc", "summary_of_the_method": "as §1"}, "[1]": {"molecular_target": "Gal3S(b1-4)[Fuc(a1-3)]Glc6S", "summary_of_the_method": "as §1"}, "[2]": {"molecular_target": "Gal3S(b1-4)[Fuc(a1-3)]GlcNAc", "summary_of_the_method": "as §1"}, "[3]": {"molecular_target": "Gal3S(b1-4)[Fuc(a1-3)]GlcNAc6S", "summary_of_the_method": "as §1"}, "Gal3S4S(b1-4)GlcNAc": {"molecular_target": "Gal3S4S(b1-4)GlcNAc", "summary_of_the_method": "as §1"}, "Gal3S6S(b1-4)GlcNAc": {"molecular_target": "Gal3S6S(b1-4)GlcNAc", "summary_of_the_method": "as §1"}, "Gal3S6S(b1-4)GlcNAc6S": {"molecular_target": "Gal3S6S(b1-4)GlcNAc6S", "summary_of_the_method": "as §1"}, "Gal4S(b1-4)GlcNAc": {"molecular_target": "Gal4S(b1-4)GlcNAc", "summary_of_the_method": "as §1"}, "Gal4S6S(b1-4)GlcNAc": {"molecular_target": "Gal4S6S(b1-4)GlcNAc", "summary_of_the_method": "as §1"}, "Gal6P(b1-4)GlcNAc": {"molecular_target": "Gal6P(b1-4)GlcNAc", "summary_of_the_method": "as §1"}, "Gal6S(b1-3)GlcNAc": {"molecular_target": "Gal6S(b1-3)GlcNAc", "summary_of_the_method": "as §1"}, "Gal6S(b1-3)GlcNAc6S": {"molecular_target": "Gal6S(b1-3)GlcNAc6S", "summary_of_the_method": "as §1"}, "Gal6S(b1-4)Glc": {"molecular_target": "Gal6S(b1-4)Glc", "summary_of_the_method": "as §1"}, "Gal6S(b1-4)Glc6S": {"molecular_target": "Gal6S(b1-4)Glc6S", "summary_of_the_method": "as §1"}, "Gal6S(b1-4)GlcNAc": {"molecular_target": "Gal6S(b1-4)GlcNAc", "summary_of_the_method": "as §1"}, "Gal6S(b1-4)GlcNAc6S": {"molecular_target": "Gal6S(b1-4)GlcNAc6S", "summary_of_the_method": "as §1"}, "GalNAc(a1-3)Gal": {"molecular_target": "GalNAc(a1-3)Gal", "summary_of_the_method": "as §1"}, "GalNAc(a1-3)GalNAc": {"molecular_target": "GalNAc(a1-3)GalNAc", "summary_of_the_method": "as §1"}, "[4]": {"molecular_target": "GalNAc(a1-3)GalNAc(a1-3)Gal(a1-4)Gal(b1-4)GlcNAc", "summary_of_the_method": "as §1"}, "[5]": {"molecular_target": "GalNAc(a1-3)GalNAc(b1-3)Gal(a1-4)Gal(b1-4)Glc", "summary_of_the_method": "as §1"}, "[6]": {"molecular_target": "GalNAc(a1-3)GalNAc(b1-3)Gal(a1-4)Gal(b1-4)GlcNAc", "summary_of_the_method": "as §1"}, "GalNAc(b1-3)Gal": {"molecular_target": "GalNAc(b1-3)Gal", "summary_of_the_method": "as §1"}, "[7]": {"molecular_target": "GalNAc(b1-3)Gal(a1-4)Gal(b1-4)GlcNAc", "summary_of_the_method": "as §1"}, "[8]": {"molecular_target": "GalNAc(b1-3)Gal(a1-4)Gal(b1-4)GlcNAc(b1-3)Gal(b1-4)Glc", "summary_of_the_method": "as §1"}, "[9]": {"molecular_target": "GalNAc(b1-3)Gal(a1-6)Gal(b1-4)Glc", "summary_of_the_method": "as §1"}, "GalNAc(b1-3)GalNAc": {"molecular_target": "GalNAc(b1-3)GalNAc", "summary_of_the_method": "as §1"}, "GalNAc(b1-3)GlcNAc": {"molecular_target": "GalNAc(b1-3)GlcNAc", "summary_of_the_method": "as §1"}, "GalNAc(b1-4)Gal(b1-4)Glc": {"molecular_target": "GalNAc(b1-4)Gal(b1-4)Glc", "summary_of_the_method": "as §1"}, "GalNAc(b1-4)GlcNAc": {"molecular_target": "GalNAc(b1-4)GlcNAc", "summary_of_the_method": "as §1"}, "[10]": {"molecular_target": "GalNAc(b1-4)GlcNAc(b1-2)Man", "summary_of_the_method": "as §1"}, "[11]": {"molecular_target": "GalNAc(b1-4)GlcNAc(b1-2)Man(a1-3)[GalNAc(b1-4)GlcNAc(b1-2)Man(a1-6)]Man(b1-4)GlcNAc(b1-4)GlcNAc", "summary_of_the_method": "as §1"}, "[12]": {"molecular_target": "GalNAc(b1-4)GlcNAc(b1-3)GalNAc(b1-4)GlcNAc", "summary_of_the_method": "as §1"}, "GalNAc(b1-4)GlcNAc6S": {"molecular_target": "GalNAc(b1-4)GlcNAc6S", "summary_of_the_method": "as §1"}, "GalNAc(b1-6)GalNAc": {"molecular_target": "GalNAc(b1-6)GalNAc", "summary_of_the_method": "as §1"}, "GalNAc3S(b1-4)GlcNAc": {"molecular_target": "GalNAc3S(b1-4)GlcNAc", "summary_of_the_method": "as §1"}, "GalNAc3S(b1-4)GlcNAc3S": {"molecular_target": "GalNAc3S(b1-4)GlcNAc3S", "summary_of_the_method": "as §1"}, "[13]": {"molecular_target": "GalNAc3S(b1-4)[Fuc(a1-3)]GlcNAc", "summary_of_the_method": "as §1"}, "GalNAc4S6S(b1-4)GlcNAc": {"molecular_target": "GalNAc4S6S(b1-4)GlcNAc", "summary_of_the_method": "as §1"}, "GalNAc6S(b1-4)GlcNAc": {"molecular_target": "GalNAc6S(b1-4)GlcNAc", "summary_of_the_method": "as §1"}, "Glc(a1-4)Glc": {"molecular_target": "Glc(a1-4)Glc", "summary_of_the_method": "as §1"}, "[14]": {"molecular_target": "Glc(a1-4)Glc(a1-4)Glc(a1-4)Glc", "summary_of_the_method": "as §1"}, "Glc(a1-6)Glc(a1-6)Glc": {"molecular_target": "Glc(a1-6)Glc(a1-6)Glc", "summary_of_the_method": "as §1"}, "[15]": {"molecular_target": "Glc(a1-6)Glc(a1-6)Glc(a1-6)Glc", "summary_of_the_method": "as §1"}}, "note": "The list shows a part of the results.", "data": [{"binder": "NKR-PIC (Mus musculus) (protein) GTGQKPSREKCCVFIQENLNKTTDCSVNLECPQDWLLHRDKCFHVSQVSNTWEEGQADCGRKGATLLLIQDQEELRFLLDSIKEKYNSFWIGLRFTLPDMNWKWINGTTFNSDVLKITGVTENGSCASILGDKVTPESCASDNRWICQKELNHETPSNDSGT", "values": [{"measurement": "glycan array binding signal (z-score)", "setting": "Gal3S(b1-4)Glc", "value": -0.166}, {"measurement": "glycan array binding signal (z-score)", "setting": "Gal3S(b1-4)Glc6S", "value": -0.179}, {"measurement": "glycan array binding signal (z-score)", "setting": "Gal3S(b1-4)GlcNAc", "value": -0.23}, {"measurement": "glycan array binding signal (z-score)", "setting": "[1]", "value": -0.02}, {"measurement": "glycan array binding signal (z-score)", "setting": "[2]", "value": -0.292}, {"measurement": "glycan array binding signal (z-score)", "setting": "[3]", "value": -0.312}, {"measurement": "glycan array binding signal (z-score)", "setting": "Gal3S4S(b1-4)GlcNAc", "value": -0.178}, {"measurement": "glycan array binding signal (z-score)", "setting": "Gal3S6S(b1-4)GlcNAc", "value": -0.159}, {"measurement": "glycan array binding signal (z-score)", "setting": "Gal3S6S(b1-4)GlcNAc6S", "value": -0.22}, {"measurement": "glycan array binding signal (z-score)", "setting": "Gal4S(b1-4)GlcNAc", "value": -0.086}, {"measurement": "glycan array binding signal (z-score)", "setting": "Gal4S6S(b1-4)GlcNAc", "value": -0.254}, {"measurement": "glycan array binding signal (z-score)", "setting": "Gal6P(b1-4)GlcNAc", "value": -0.386}, {"measurement": "glycan array binding signal (z-score)", "setting": "Gal6S(b1-3)GlcNAc", "value": -0.331}, {"measurement": "glycan array binding signal (z-score)", "setting": "Gal6S(b1-3)GlcNAc6S", "value": -0.349}, {"measurement": "glycan array binding signal (z-score)", "setting": "Gal6S(b1-4)Glc", "value": -0.305}, {"measurement": "glycan array binding signal (z-score)", "setting": "Gal6S(b1-4)Glc6S", "value": -0.29}, {"measurement": "glycan array binding signal (z-score)", "setting": "Gal6S(b1-4)GlcNAc", "value": -0.271}, {"measurement": "glycan array binding signal (z-score)", "setting": "Gal6S(b1-4)GlcNAc6S", "value": -0.239}, {"measurement": "glycan array binding signal (z-score)", "setting": "GalNAc(a1-3)Gal", "value": 0.263}, {"measurement": "glycan array binding signal (z-score)", "setting": "GalNAc(a1-3)GalNAc", "value": -0.315}, {"measurement": "glycan array binding signal (z-score)", "setting": "[4]", "value": -0.341}, {"measurement": "glycan array binding signal (z-score)", "setting": "[5]", "value": -0.327}, {"measurement": "glycan array binding signal (z-score)", "setting": "[6]", "value": -0.343}, {"measurement": "glycan array binding signal (z-score)", "setting": "GalNAc(b1-3)Gal", "value": -0.37}, {"measurement": "glycan array binding signal (z-score)", "setting": "[7]", "value": -0.121}, {"measurement": "glycan array binding signal (z-score)", "setting": "[8]", "value": -0.385}, {"measurement": "glycan array binding signal (z-score)", "setting": "[9]", "value": -0.333}, {"measurement": "glycan array binding signal (z-score)", "setting": "GalNAc(b1-3)GalNAc", "value": -0.344}, {"measurement": "glycan array binding signal (z-score)", "setting": "GalNAc(b1-3)GlcNAc", "value": -0.346}, {"measurement": "glycan array binding signal (z-score)", "setting": "GalNAc(b1-4)Gal(b1-4)Glc", "value": -0.328}, {"measurement": "glycan array binding signal (z-score)", "setting": "GalNAc(b1-4)GlcNAc", "value": 3.37}, {"measurement": "glycan array binding signal (z-score)", "setting": "[10]", "value": 5.67}, {"measurement": "glycan array binding signal (z-score)", "setting": "[11]", "value": 2.63}, {"measurement": "glycan array binding signal (z-score)", "setting": "[12]", "value": 2.89}, {"measurement": "glycan array binding signal (z-score)", "setting": "GalNAc(b1-4)GlcNAc6S", "value": 2.51}, {"measurement": "glycan array binding signal (z-score)", "setting": "GalNAc(b1-6)GalNAc", "value": 0.458}, {"measurement": "glycan array binding signal (z-score)", "setting": "GalNAc3S(b1-4)GlcNAc", "value": 0.586}, {"measurement": "glycan array binding signal (z-score)", "setting": "GalNAc3S(b1-4)GlcNAc3S", "value": -0.377}, {"measurement": "glycan array binding signal (z-score)", "setting": "[13]", "value": -0.38}, {"measurement": "glycan array binding signal (z-score)", "setting": "GalNAc4S6S(b1-4)GlcNAc", "value": -0.357}, {"measurement": "glycan array binding signal (z-score)", "setting": "GalNAc6S(b1-4)GlcNAc", "value": 4.94}, {"measurement": "glycan array binding signal (z-score)", "setting": "Glc(a1-4)Glc", "value": -0.326}, {"measurement": "glycan array binding signal (z-score)", "setting": "[14]", "value": -0.34}, {"measurement": "glycan array binding signal (z-score)", "setting": "Glc(a1-6)Glc(a1-6)Glc", "value": -0.31}, {"measurement": "glycan array binding signal (z-score)", "setting": "[15]", "value": -0.305}]}]}
